This note sets out measurements from PubChem BioAssay AID360 (National Center for Advancing Translational Sciences (NCATS), 2006).

Structures are written as SMILES. Screen size: about 48,000 compounds; about 550 (1.1%) were called active. Inconclusive results (about 4%) are left out. No stated cut-off is given here; in the data, active means potency below about 15 µM; inconclusive means mostly about 16 µM to 33 µM; inactive means weaker than that. Some of the results follow.
Potency means the concentration at half of the fitted maximal effect.

Chain of UniProt P04062 (P04062 whole entry, looked up): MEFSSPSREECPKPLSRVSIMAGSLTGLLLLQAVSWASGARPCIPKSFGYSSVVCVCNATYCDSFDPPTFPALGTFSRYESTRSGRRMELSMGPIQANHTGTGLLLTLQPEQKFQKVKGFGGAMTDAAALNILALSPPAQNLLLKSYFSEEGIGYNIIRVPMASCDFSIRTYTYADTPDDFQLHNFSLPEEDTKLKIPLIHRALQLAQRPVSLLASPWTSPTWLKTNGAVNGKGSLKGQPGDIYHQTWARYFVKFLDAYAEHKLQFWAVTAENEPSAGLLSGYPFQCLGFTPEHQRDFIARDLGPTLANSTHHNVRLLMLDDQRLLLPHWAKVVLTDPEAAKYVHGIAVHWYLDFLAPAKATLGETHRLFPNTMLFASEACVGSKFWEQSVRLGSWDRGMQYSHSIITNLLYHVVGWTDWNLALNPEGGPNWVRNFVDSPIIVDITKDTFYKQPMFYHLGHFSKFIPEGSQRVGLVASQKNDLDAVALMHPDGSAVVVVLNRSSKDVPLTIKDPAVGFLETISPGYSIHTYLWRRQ

The target of the assay is Lysosomal acid glucosylceramidase (Homo sapiens) (UniProt P04062). Kind of assay: Glucocerebrosidase.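 Further: the screen sought inhibitors.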 The following applies: purified enzyme, resorufin glucoside fluorescence (screen aimed at inhibitors), 20 min. The method in brief:
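Compounds titrated against 0.2 nM normal enzyme, 30 uM resorufin beta-D-glucopyranoside substrate, citrate/phosphate buffer with taurocholate and tween-20, pH 5.9. Reaction ran 20 min at room temperature; fluorescence (Ex 548/Em 600) gave AC50.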
Turning to `Cc1noc(C)c1COC(=O)CCc1nc2ccccc2c(=O)[nH]1`, the Potency is inactive: > 76.9 µM.

For `O=C(Nc1ccc(S(=O)(=O)N2CCCCC2)cc1)c1cnccn1`, the Potency is inactive: > 76.9 µM.

Regarding `Cc1ccc2[nH]c(=O)c(COC(=O)C3CCCO3)cc2c1` (stereo not drawn), the Potency was inactive: > 76.9 µM. The same measure for `CCOC(=O)C1=C(C)NC(=O)C(C(N)=O)C12CCCCC2` (stereo not drawn): inactive: > 76.9 µM; for `CC(C)CNC(=O)C1CCCN(S(=O)(=O)c2ccc(-n3cnnn3)cc2)C1` (stereo not drawn): inactive: > 76.9 µM.

For the molecule `Cc1noc(NS(=O)(=O)c2ccc(NC(=O)Nc3ccc(Cl)c(Cl)c3)cc2)c1C`, the Potency was inactive: > 76.9 µM.

On to `CCOC(=O)c1c(NC(=O)c2ccn(CC)n2)sc2c1CCCC2`, for which the Potency result is “inactive”. The result for `Cc1c(C(=O)N2CC(C)OC(C)C2)sc2nc(-c3ccc(F)cc3)cn12` (stereo not drawn) reads inactive: > 76.9 µM; that for `COc1ccc(OC)c(C(O)c2nc3ccccc3n2C(C)C)c1` (stereo not drawn), inactive: > 76.9 µM; that for `O=C(c1cccc2ccccc12)N1CCN(CC2CC=CCC2)CC1` (stereo not drawn), inactive: > 76.9 µM. The same measure for `O=C1c2oc3ccccc3c(=O)c2C(c2cccnc2)N1CCCN1CCOCC1` (stereo not drawn): inactive: > 76.9 µM; for `Cn1c(SCC(=O)NCCc2ccccc2)nnc1-c1ccncc1`: inactive: > 76.9 µM; for `Cc1cc2n(n1)C(c1c[nH]c3ccccc13)Nc1ccccc1-2` (stereo not drawn): inactive: > 76.9 µM. The same measure for `Cc1ccc(OCc2nnc(SCC(=O)c3ccccc3)n2Cc2ccco2)cc1`: inactive: > 76.9 µM; for `Cc1nc2ncnn2c(C)c1CCC(=O)Oc1ccccc1`: inactive: > 76.9 µM; for `COC(=O)Cn1c2ccccc2c2nc(C)sc21`: inactive: > 76.9 µM. Take `Cc1ccnc(NC(=O)CCC(=O)N(CC(=O)NCCc2ccccc2)Cc2ccco2)c1`: the Potency was inactive: > 76.9 µM. The result for `CCOC(=O)C1CCN(CC(O)COc2ccc(C(C)(C)CC)cc2)CC1` (stereo not drawn) reads inactive: > 76.9 µM; that for `CCCC(=O)n1nc(-c2ccc(Cl)cc2)nc1SC`, inactive: > 76.9 µM. The result for `O=C(C1CCN(C2CC(=O)N(c3cccc(Cl)c3)C2=O)CC1)N1CCCC1` (stereo not drawn) reads inactive: > 76.9 µM; that for `CCCC(=O)NC(Nc1ccc(S(=O)(=O)Nc2cc(C)on2)cc1)(C(=O)OCC)C(F)(F)F` (stereo not drawn), inactive: > 76.9 µM; that for `Oc1ccc(CN2CCCCC2)nc1-c1ccccc1`, inactive: > 76.9 µM.

For the molecule `CCN(CC(=O)NCCc1ccc(S(N)(=O)=O)cc1)Cc1nc2ccccc2c(=O)[nH]1`, the Potency is inactive: > 76.9 µM. On to `Cc1ccc(-c2nn3c(C)nnc3s2)cc1NCc1c(F)cccc1Cl`, for which the Potency was inactive: > 76.9 µM. The result for `CCOC(=O)C1CCN(C(=O)CSCCSCC(=O)N2CCC(C(=O)OCC)CC2)CC1` reads inactive: > 76.9 µM; that for `Cc1ccn2cc(C(=O)Nc3ccc4c(c3)OCCO4)nc2c1`, inactive: > 76.9 µM; that for `O=c1cc(N2CCc3ccccc3C2)[nH]c(=O)n1-c1ccc(Br)cc1`, inactive: > 76.9 µM.

Consider `CC(=O)Nc1cc(C(F)(F)F)ccc1N1CCOCC1`, for which the Potency is inactive: > 76.9 µM.

In the case of `O=C(COC(=O)c1ccccc1)NCC1CCCO1` (stereo not drawn), the Potency is inactive: > 76.9 µM.

As for `CCOc1ccccc1NC(=O)CSc1nnc(-c2cnccn2)n1C`, the Potency is inactive: > 76.9 µM. The same measure for `COc1ccccc1CNC(=O)CCS(=O)(=O)c1cccs1`: inactive: > 76.9 µM; for `COc1ccc(NC(=O)Cn2nc(C(F)(F)F)c3c2CCCC3)c(OC)c1`: inactive: > 76.9 µM; for `COc1ccc(C2C(C(=O)N3CCOCC3)=C(C)NC3=C2C(=O)CC(C)(C)C3)cc1O` (stereo not drawn): inactive: > 76.9 µM. The result for `CCOC(=O)C1CCN(C(=O)CSc2cc(=O)n(CC)c3ccccc23)CC1` reads inactive: > 76.9 µM.

Consider `O=C(c1cc2cc(Br)ccc2oc1=O)N1CCN(c2ccccn2)CC1`, for which the Potency is inactive: > 76.9 µM. `C=CCn1cc(C(=O)NCCOC)c(=O)c2cc(S(=O)(=O)N(CC)CC)ccc21`: the Potency is inactive: > 76.9 µM.

For the molecule `COc1ccc2cc(CCNC(=O)CC(C)(C)C)c(=O)[nH]c2c1`, the Potency was inactive: > 76.9 µM. Take `Cc1ccc(NC(=O)CSc2nccc(=O)[nH]2)c(S(=O)(=O)N2CCOCC2)c1`: the Potency was inactive: > 76.9 µM. Turning to `Brc1cnn(-c2nc(N3CCOCC3)nc(N3CCOCC3)n2)c1`, the Potency is inactive: > 76.9 µM. The result for `CCCC(=O)Nc1ccc(NC(=O)c2ccccn2)cn1` reads inactive: > 76.9 µM.

With `CCOc1cc(S(=O)(=O)N2CCN(c3ccc(F)cc3)CC2)c(OCC)cc1-n1cnnn1`, the Potency is inactive: > 76.9 µM. In the case of `CS(=O)(=O)N(CC(=O)N1CCCCCC1)c1ccc(Br)cc1`, the Potency is inactive: > 76.9 µM. The same measure for `COc1cccc(-c2csc3nnc(SCC(=O)NCc4cccs4)n23)c1`: inactive: > 76.9 µM. The same measure for `COC(=O)C1(CO)NC(c2cccs2)C2C(=O)N(c3ccccc3)C(=O)C21` (stereo not drawn): inactive: > 76.9 µM; for `O=C1CNC(=O)N1Cc1ccc(Br)cc1`: inactive: > 76.9 µM; for `Cc1[nH]c2ccccc2c1C(=O)COC(=O)C1CCC(=O)N1` (stereo not drawn): inactive: > 76.9 µM. The result for `Cc1n[nH]c(=O)nc1NCc1ccco1` reads inactive: > 76.9 µM; that for `CC(C)C(=O)Nc1ccccc1N1CCN(S(C)(=O)=O)CC1`, inactive: > 76.9 µM; that for `CCOC(=O)N1CCC(NC(=O)CCC(=O)N2CC(C)Oc3ccc(C)cc32)CC1` (stereo not drawn), inactive: > 76.9 µM. With `COc1cc(NC(=O)C2CCCO2)c(C(=O)O)cc1OC` (stereo not drawn), the Potency was inactive: > 76.9 µM. The result for `Cn1cnnc1SCC(=O)Nc1sc2c(c1C(N)=O)CCC2` reads inactive: > 76.9 µM; that for `O=C(Nc1nc2c(Cl)cccc2s1)c1ccc(Br)o1`, inactive: > 76.9 µM. The same measure for `O=C(Nc1cccc(F)c1)c1cc(S(=O)(=O)N2CCC(C(=O)O)CC2)ccc1F`: inactive: > 76.9 µM.

As to `CC1CCN(C(=O)C2c3ccccc3C(=O)N3CCc4ccccc4C23)CC1` (stereo not drawn), the Potency is inactive: > 76.9 µM.

For `CC(=O)Nc1ccc(NC(=O)CSc2nnc(C3CC3)n2C)cc1`, the Potency was inactive: > 76.9 µM. The same measure for `O=C(NC1CCCCC1)c1ccc(S(=O)(=O)NCc2ccco2)cc1`: inactive: > 76.9 µM; for `CC(C)c1ccc(NS(=O)(=O)c2ccc3[nH]cc(C(=O)N4CCC(C(N)=O)CC4)c(=O)c3c2)cc1`: inactive: > 76.9 µM; for `COc1ccc(-c2nc3c(c(=O)n(C)c(=O)n3C)n2CC2CC(c3ccccc3)=NO2)cc1OC` (stereo not drawn): inactive: > 76.9 µM. For `CCOC(=O)CS(=O)(=O)c1nc(-c2ccccc2)cc(C(F)(F)F)n1`, the Potency was inactive: > 76.9 µM. The result for `O=C(O)CNS(=O)(=O)c1cc(Cl)c(Cl)cc1Cl` reads inactive: > 76.9 µM. As to `COc1cc(OC)nc(NC(=O)CSc2nnc(-c3ccccc3)n2C2CCCCC2)n1`, the Potency was inactive: > 76.9 µM. Take `CCOC(=O)CSc1nc(C)c2cc(OC)ccc2n1`: the Potency was inactive: > 76.9 µM. The same measure for `O=C(CCn1cccc1)NCc1ccc(Cl)cc1`: inactive: > 76.9 µM; for `Cc1ccc(CCNC(=O)C2CCN(c3nn4c(=O)cc(C)nc4s3)CC2)cc1`: inactive: > 76.9 µM; for `COc1ccc(C2C(C(=O)NCc3ccccn3)c3cc(OC)c(OC)cc3C(=O)N2C)cc1` (stereo not drawn): inactive: > 76.9 µM.

As for `CCOC(=O)c1cc2n(c1C)-c1ccccc1C2=O`, the Potency was inactive: > 76.9 µM. Regarding `COC(=O)C1=C(CN2CCSCC2)NC(=O)NC1c1cc(C)ccc1C` (stereo not drawn), the Potency is inactive: > 76.9 µM. The same measure for `O=c1cc(CSc2ccc(S(=O)(=O)N3CCCCC3)cn2)nc2sccn12`: inactive: > 76.9 µM; for `CCC(CC)C(=O)Nc1cc(OC)c(OC)cc1C(=O)O`: inactive: > 76.9 µM.

As for `Cc1ccc(-c2nnn(CC(=O)O)n2)cc1`, the Potency was inactive: > 76.9 µM. The same measure for `Cc1ccc(S(=O)(=O)N(C)CC(=O)N2CCN(C(=O)c3ccco3)CC2)cc1`: inactive: > 76.9 µM. The result for `Cn1c(SCC(=O)c2ccc(F)cc2)nnc1-c1ccccc1N` reads inactive: > 76.9 µM.

Regarding `CCOC(=O)N1CCN(CC(O)COCC2=CCC3CC2C3(C)C)CC1` (stereo not drawn), the Potency is inactive: > 76.9 µM. The result for `N#CCCN1CCN(S(=O)(=O)c2ccc(C#N)cc2)CC1` reads inactive: > 76.9 µM. With `CCOC(=O)c1c(P(=O)(N2CCOCC2)N2CCOCC2)noc1N`, the Potency is inactive: > 76.9 µM.

For the molecule `CCCn1c(SCC(=O)Nc2cc(C)on2)nc2c1c(=O)n(C)c(=O)n2C`, the Potency is inactive: > 76.9 µM.

As for `O=C(c1cccs1)N1CCC(c2nc(-c3ccc(S(=O)(=O)N4CCOCC4)cc3)no2)CC1`, the Potency is inactive: > 76.9 µM.

For the molecule `Cc1ccc(NC(=O)NC(=O)CSc2nnnn2C)c(C)c1`, the Potency is inactive: > 76.9 µM.

In the case of `CCN1C(=O)CSc2ccc(C(=O)NCc3ccco3)cc21`, the Potency was inactive: > 76.9 µM.

Take `Cc1ccccc1Cn1nc(C)c(NC(=O)c2cc3nc(-c4ccco4)cc(C(F)(F)F)n3n2)c1C`: the Potency was inactive: > 76.9 µM. The same measure for `CCOc1cc(-c2ccc3c(c2)OCO3)cc(=O)c2c(C)oc(C)c12`: inactive: > 76.9 µM. The same measure for `Cc1ccc(-c2nc(CSCC(=O)N3CCOCC3)c(C)o2)cc1`: inactive: > 76.9 µM; for `O=C(NCc1cccnc1)c1cn(CCc2ccccc2)nn1`: inactive: > 76.9 µM. The same measure for `CCCCn1c(C)nc2c(=O)n(C)c(=O)[nH]c21`: inactive: > 76.9 µM; for `O=C(Cn1cnc2c(nnn2Cc2ccc(F)cc2)c1=O)N1CCN(c2ccccc2)CC1`: inactive: > 76.9 µM. Regarding `c1ccc(C(c2nnnn2Cc2cccs2)N2CCN(C3CCCC3)CC2)cc1` (stereo not drawn), the Potency was inactive: > 76.9 µM. The result for `CCOC(=O)c1c(C)n(C)c2ccc(OCC(O)Cn3nc(C)c(Br)c3C)cc12` (stereo not drawn) reads inactive: > 76.9 µM; that for `Cc1nc2ccccn2c1/C(O)=C1\C(=O)C(=O)N(CCN2CCOCC2)C1c1cccnc1` (stereo not drawn), inactive: > 76.9 µM.
